Test results taken from PubChem BioAssay AID624417 (National Center for Advancing Translational Sciences (NCATS), 2012).
In all, about 410,000 compounds went through this assay and about 6,400 (1.6%) were called active. The shares of active, inactive and inconclusive entries below differ from those in the screen. The call rests on the fitted dose curve; in most records, active means well fitted inhibition curve with a large enough effect; inconclusive means small, poorly fitted or top-dose-only effect; inactive means no such curve, though single readings can be large or run the other way. No potency is given beside an inconclusive call; the fits are too rough.

Target: Glucagon-like peptide 1 receptor (Homo sapiens) (UniProt P43220)
Assay: qHTS of GLP-1 Receptor Inverse Agonists (Inhibition Mode); further: nearly all actives have a fitted effect of over 55% in size
Conditions: HEK293 GLP-1R CRE-luciferase, luminescence, 24 h, GLP-1R form is constitutively active; series mostly up to 38.3 µM
Summary of the method: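 HEK293 cells stably co-expressing a cAMP-responsive luciferase reporter and constitutively active GLP-1R were seeded, incubated 12 h, then exposed to compounds for 24 h at 37 C. Luminescence was read 12 min after detection reagent; inverse agonists lower signal.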
Potency means the concentration at half of the fitted maximal effect; tags describe the fitted curve by direction and shape.

UniProt P43220, sequence (P43220 whole entry, looked up): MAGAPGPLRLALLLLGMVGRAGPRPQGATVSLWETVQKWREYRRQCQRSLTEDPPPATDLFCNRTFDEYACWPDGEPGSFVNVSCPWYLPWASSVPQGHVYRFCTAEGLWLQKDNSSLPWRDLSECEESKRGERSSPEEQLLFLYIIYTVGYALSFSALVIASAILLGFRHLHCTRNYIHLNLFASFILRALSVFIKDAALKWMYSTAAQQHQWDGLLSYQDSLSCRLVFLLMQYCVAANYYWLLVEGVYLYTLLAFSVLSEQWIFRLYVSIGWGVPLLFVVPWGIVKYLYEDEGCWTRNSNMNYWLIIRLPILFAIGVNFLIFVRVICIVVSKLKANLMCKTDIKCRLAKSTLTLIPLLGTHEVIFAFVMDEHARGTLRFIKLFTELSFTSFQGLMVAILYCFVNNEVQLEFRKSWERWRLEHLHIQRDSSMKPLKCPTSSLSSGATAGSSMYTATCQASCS

Row | Structure (SMILES) | Potency
1 | c1ccc2c(c1)[nH]c1c3ccccc3sc21 | inconclusive [inhibitor, single point]
2 | CCCOc1ccc(C2C(=O)N(C3CCC(C)CC3)CC(=O)N2CCc2ccccc2)cc1OC (stereo not drawn) | inactive
3 | O=C1c2ccccc2NC(c2cccc(O)c2)N1c1ccccc1 (stereo not drawn) | inconclusive [inhibitor, partial curve, poor fit]
4 | CCOC(=O)C1CCCN(Cc2cccc(Cl)c2)C1 (stereo not drawn) | inactive
5 | CCc1ccccc1N(C)S(=O)(=O)c1cc(-c2cc(C)no2)ccc1OC | inconclusive [inhibitor, partial curve, poor fit]
6 | COc1ccc(-c2cnc3c(c2)CCC3(C#N)C#N)cc1 | inconclusive [inhibitor, full curve, poor fit]
7 | COc1ccc(OCC(=O)N/N=C(\C)CC(=O)Nc2ccc(OC)cc2[N+](=O)[O-])cc1 | inactive
8 | Cc1ccc(Cl)c(NC(=S)N(CCCN2CCOCC2)Cc2ccco2)c1 | inconclusive [inhibitor, partial curve, poor fit]
9 | CCc1ccc(OCC(=O)N(Cc2ccc(C(C)C)cc2)C2CCS(=O)(=O)C2)cc1 (stereo not drawn) | inconclusive [inhibitor, single point]
10 | COC(=O)[C@]1(CC(C)C)N[C@H](c2ccc(SC3CCCCC3)c(OC)c2)[C@@H]2C(=O)N(C)C(=O)[C@@H]21 | inconclusive [inhibitor, partial curve, poor fit]
11 | CCCCN(CCCC)/C(N)=N/c1nc(C)cc(C)n1 | active: 3.98 µM
12 | CCCCOc1ccc(-c2nnn(C(C)(C)C(=O)OC)n2)cc1 | inconclusive [inhibitor, partial curve, poor fit]
13 | COc1ccc(NC(=O)c2oc3ccccc3c2NC(=O)c2ccco2)c(OC)c1 | inactive
14 | CCCCN(C(=O)c1ccc(S(=O)(=O)N(C)C)cc1)c1ccccc1 | inconclusive [inhibitor, partial curve]
15 | Cc1c(C(=O)N/N=C/c2ccccc2)[nH]c2ccc(Cl)cc12 | inconclusive [inhibitor, full curve, poor fit]
16 | COc1ccc(NC(=O)NC2CCCc3ccccc32)cc1 (stereo not drawn) | inconclusive [inhibitor, partial curve, poor fit]
17 | O=C(c1ccc2ccccc2c1)N1CCN(S(=O)(=O)/C=C/c2ccccc2)CC1 | inconclusive [inhibitor, single point]
18 | COC(=O)c1sc2ccccc2c1-n1cccc1C(=O)C(=O)Nc1ccc(F)cc1 | inconclusive [inhibitor, partial curve, poor fit]
19 | COc1ccc(-n2c(C)cc(C(=O)CN3C(=O)C(=O)N(Cc4ccccc4)C3=O)c2C)cc1 | inconclusive [inhibitor, single point]
20 | O=[N+]([O-])c1c(NCc2ccco2)ncnc1NCc1ccco1 | inconclusive [inhibitor, single point]
21 | Cc1ccc(CN2CCN(/N=C/c3cccn3C)CC2)c(C)c1 | inconclusive [inhibitor, single point]

Row | Structure (SMILES) | Potency
22 | Cc1ccc(NCCN(C)C)c2c(=O)c3cc(O)ccc3sc12 | inconclusive [inhibitor, single point]
23 | CCc1ccccc1NC(=O)CN(C)C(=O)CSc1nnc(Nc2cccc(C)c2C)s1 | inconclusive [inhibitor, partial curve, poor fit]
24 | CC1(C(=O)NS(=O)(=O)C2CC2)CCN(C(=O)c2ccc3ccccc3n2)C1 (stereo not drawn) | inactive
25 | COc1ccc(-c2c(C)cc3oc(=O)cc(-c4ccccc4)c3c2C)cc1 | inconclusive [inhibitor, single point]
26 | O=C1Nc2ccccc2/C1=N/c1sc2c(c1C(=O)NCCc1ccccc1)CCCC2 | inconclusive [inhibitor, full curve, poor fit]
27 | O=C1CSC2(C(=O)N(Cc3cccc(C(F)(F)F)c3)c3ccccc32)N1c1ccc(F)c(F)c1 (stereo not drawn) | inconclusive [inhibitor, single point]
28 | Cc1ccc2c(=O)n3c(nc2c1)C(Cc1ccccc1)NC(=O)c1cc2ccccc2cc1-3 (stereo not drawn) | inconclusive [inhibitor, full curve, poor fit]
29 | C=CCOC(=O)C1=C[C@H](c2csc3ccccc23)C[C@H](OCc2ccc(CO)cc2)O1 | inconclusive [inhibitor, single point]
30 | Cc1cccc(C(=O)Nc2cccc3c2CCCC3)c1 | inconclusive [inhibitor, single point]
31 | CCN(CC)S(=O)(=O)c1cc(C(=O)Nc2ccc(Cl)cn2)ccc1C | inconclusive [inhibitor, partial curve, poor fit]
32 | O=S1(=O)CC(N2CCC(Cc3ccccc3)CC2)CN1Cc1ccccc1 (stereo not drawn) | inconclusive [inhibitor, partial curve, poor fit]
33 | CCCc1nc2ccc(NC(=O)c3cccs3)cc2c(=O)n1Cc1ccccc1Cl | inconclusive [inhibitor, partial curve, poor fit]
34 | COc1cc(/C=C/C(=O)N2C(=O)c3cccc(N)c3C2=O)cc(OC)c1OC | inactive
35 | COc1ccccc1C(=O)N/C(=C\c1cn(S(=O)(=O)N(C)C)c2ccccc12)C(=O)N1CCCC1 | inconclusive [inhibitor, full curve]
36 | Cc1ccc2oc(-c3ccc(C)c(NC(=O)/C=C/c4ccco4)c3)nc2c1 | inactive
37 | Cc1ccc2c(CC(=O)N(Cc3ccc(N(C)C)cc3)Cc3ccco3)coc2c1C | inconclusive [inhibitor, single point]
38 | CC[C@@H]1CC=C[C@H]2[C@H]1C(=O)N(Cc1ccccc1)[C@H]2c1ccoc1 | inconclusive [inhibitor, single point]
39 | CCOc1ccc(-c2nc(-c3ccccc3)c(-c3ccccc3)[nH]2)cc1OCC | inconclusive [inhibitor, full curve, poor fit]
40 | COc1cc2nc(Nc3cccc(F)c3)nc(N)c2cc1OC | active: 10 µM
41 | CCOC(=O)[C@@H]1[C@H]2COc3ccc(Br)cc3[C@H]2N2C(=O)N(c3ccc(Cl)cc3)C(=O)[C@@]12C | inconclusive [inhibitor, single point]
42 | CN(C)CCC[C@]1(c2ccc(F)cc2)OCc2cc(C#N)ccc21 | inconclusive [inhibitor, single point]

Row | Structure (SMILES) | Potency
43 | CCOC(=O)C1CCCN(C(=O)c2ccc(Cl)c(S(=O)(=O)N3CCCCC3)c2)C1 (stereo not drawn) | inconclusive [inhibitor, partial curve, poor fit]
44 | COc1ccc(Cl)cc1Nc1nc(-c2cccnc2)cs1 | inconclusive [inhibitor, partial curve, poor fit]
45 | COc1ccc(/C=N/NC(=O)c2cccc(Br)c2)cc1Cn1cc(Cl)cn1 | inconclusive [inhibitor, partial curve]
46 | Cc1cccc2nc(-c3ccccn3)c(Nc3ccccc3)n12 | inconclusive [inhibitor, partial curve, poor fit]
47 | CC(C)Cn1cc(NC(=O)N2CCN(c3cccc(C(F)(F)F)c3)CC2)c2ccccc2c1=O | inconclusive [inhibitor, single point]
48 | CC(=O)C1=C(O)C(=O)N(c2cccc(Br)c2)C1c1ccc(Br)cc1 (stereo not drawn) | inconclusive [inhibitor, single point]
49 | N/C(CS(=O)(=O)c1ccc(F)cc1)=N\O | inactive
50 | Cc1cc(C)n(-c2nc3ccccc3[nH]c2=O)n1 | inactive
51 | CC(C)C(Cl)=NOC(=O)Nc1ccc(F)cc1 | inconclusive [inhibitor, single point]
52 | Cc1ccc(NC(=O)CN(Cc2ccccc2)S(=O)(=O)c2ccc3nc(C)sc3c2)c(C)c1 | inactive
53 | CSc1cnn(CCC#N)c(=O)n1 | inactive
54 | C=CCn1nc(C(=O)OCC)cc1-c1sc(NC(=O)c2ccccc2)nc1C | inconclusive [inhibitor, partial curve, poor fit]
55 | S=C(Nc1ccc2nsnc2c1)NC1CCCCC1 | inconclusive [inhibitor, single point]
56 | N/C(=N\OC(=O)c1cccc(Cn2cc(C(F)(F)F)ccc2=O)c1)c1ccccc1 | inconclusive [inhibitor, partial curve, poor fit]
57 | COc1cc2c(cc1OC)C(COc1ccc(C(C)C)cc1)NCC2 (stereo not drawn) | inconclusive [inhibitor, single point]
58 | CC(C#N)Sc1ncnc2sc3c(c12)CCC3 (stereo not drawn) | inactive
59 | O=C(Nc1ccc(Cl)cc1)c1ccc2nsnc2c1 | inconclusive [inhibitor, single point]
60 | CCOc1cccc(NCc2cc3c(C(C)(C)C)nn(-c4ccccc4)c3[nH]c2=O)c1 | inconclusive [inhibitor, partial curve, poor fit]
61 | Cc1ccc(-n2nc3c(=O)n(CCCC(=O)NCc4ccc(Cl)cc4)nc(C)c3c2C)cc1 | inconclusive [inhibitor, full curve]
62 | O=C(Nc1ccc(NC(=O)c2ccco2)cc1)c1cnccn1 | inactive
63 | CCN(CC)S(=O)(=O)c1ccc(N2CCCC2)c(NC(=O)c2ccccc2OC)c1 | inconclusive [inhibitor, single point]
